# Test results as given in paper PMC6919601, “Identification of Plasmodium dipeptidyl aminopeptidase allosteric inhibitors by high throughput screening” (PLoS ONE, 2019).
# Several values for one entry are separate records, joined by “and”; a condition that tells them apart may be missing. Equal entries are not always repeated. The campaign covered roughly 110,000 compounds. About 230 (0.21%) showed an effect of 50% or more. The list shows a part of the results.
# Target: DPAP1 (Plasmodium falciparum, UniProt Q8IIJ9)
# Assay: primary screen, percent inhibition; read by cleavage of a fluorogenic dipeptide substrate; higher = more effect of the substance
# Parameters: species or system P. falciparum D10 trophozoite lysates; single well
# 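Further: 30 min substrate incubation versus DMSO and 10 µM JCP410 controls.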
# DPAP1, sequence (Q8IIJ9 whole entry, looked up): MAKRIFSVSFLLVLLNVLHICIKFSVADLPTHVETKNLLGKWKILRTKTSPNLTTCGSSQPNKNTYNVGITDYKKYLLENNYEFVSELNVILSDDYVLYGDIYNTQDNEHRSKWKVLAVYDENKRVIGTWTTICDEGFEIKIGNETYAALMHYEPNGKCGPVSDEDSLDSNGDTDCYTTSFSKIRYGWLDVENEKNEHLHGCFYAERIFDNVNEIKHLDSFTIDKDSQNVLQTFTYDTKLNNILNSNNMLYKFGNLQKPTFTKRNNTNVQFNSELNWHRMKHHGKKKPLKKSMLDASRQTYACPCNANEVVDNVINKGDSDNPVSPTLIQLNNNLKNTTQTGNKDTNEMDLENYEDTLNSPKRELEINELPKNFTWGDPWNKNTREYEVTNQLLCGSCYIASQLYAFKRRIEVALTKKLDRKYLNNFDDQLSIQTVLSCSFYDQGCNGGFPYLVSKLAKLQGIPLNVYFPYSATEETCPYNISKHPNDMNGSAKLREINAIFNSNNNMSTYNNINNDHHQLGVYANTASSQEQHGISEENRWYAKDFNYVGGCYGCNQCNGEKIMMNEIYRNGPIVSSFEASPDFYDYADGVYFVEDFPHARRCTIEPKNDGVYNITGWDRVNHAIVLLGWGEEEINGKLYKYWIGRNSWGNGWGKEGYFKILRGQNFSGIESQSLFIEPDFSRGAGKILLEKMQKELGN
row,Structure (SMILES),% Inhibition @ 10 uM
1,CCN1CCC(N2CCN(c3ccc(F)cc3)CC2)CC1,1.26%
2,COc1cc(C2C(C#N)=C(N)N(c3c(F)cccc3F)C3=C2C(=O)CCC3)ccc1O (stereo not shown),-7.3%
3,Cc1coc2cc3oc(=O)c(CCC(=O)NCCc4ccccc4)c(C)c3cc12,-4.39%
4,O=C(c1ccc(F)cc1)N1CCN(c2cccc(Cl)c2)CC1,0.177%
5,COc1ccc(Cl)cc1N(CC(=O)Nc1ccc(Br)cc1)S(C)(=O)=O,-5.13%
6,Cc1cccc(OCCn2c(CCCO)nc3ccccc32)c1,-2.05%
7,CC1=Nc2nc3ccccc3n2C(c2ccco2)/C1=C(/O)OCc1ccccc1 (stereo not shown),-8.02%
8,O=C(CC(NCCN1CCOCC1)C(=O)O)Nc1ccc(Cl)cc1 (stereo not shown),-2.98%
9,O=C(CSc1ncnc2c1sc1nc(N3CCOCC3)c3c(c12)CCCC3)N1CCCCC1,-1.82%
10,COC(=O)C1=CN(CC23CC4CC(CC(C4)C2)C3)C=C(C(=O)OC)C1c1ccc(O)c(OC)c1,-4.35%
11,CCc1c(C)sc(NC(=O)c2cnccn2)c1C#N,7.1%
12,CCN1CCN(C(=O)CCCN2C(=O)c3ccccc3Sc3ncccc32)CC1,-3.86%
13,CCOc1ccc(/C=C2/N=C(c3c(-c4ccccc4)noc3C)OC2=O)cc1,4.38%
14,Cc1nnc2sc(NC(=O)C3CCCCC3)nn12,-3.1%
15,CC(C)NC(=O)c1ccc(CS(=O)c2ccccc2Cl)o1 (stereo not shown),-0.434%
16,Cn1c(=O)c2c(nc(CN3CCc4ccccc4C3)n2Cc2c(F)cccc2Cl)n(C)c1=O,-2.29%
17,CN1CCc2nc(SCc3cccc(Br)c3)c(C#N)cc2C1,-4.28%
18,COc1ccccc1CNC(=O)Cn1cnc2c(nc3n2CCCCC3)c1=O,0.244%
19,CN1CCC(N(C)C/C=C/c2ccccc2)CC1,2.91%
20,O=c1oc2ccccc2cc1-c1cnc(-c2ccccc2)o1,2.4%
21,Cc1nn(-c2cc(Oc3ccccc3)ncn2)c(N)c1C(N)=O,2.64%
22,CCCOc1cccc(C2c3c(oc4ccccc4c3=O)C(=O)N2c2nc(C)c(C(=O)OC)s2)c1 (stereo not shown),-2.92%
23,COc1cccc(-c2cc(C(=O)Nc3cc(C)on3)c3ccccc3n2)c1,0.331%
24,N#CC1=C(N)Nc2oc(-c3ccccc3)nc2C1c1ccccc1 (stereo not shown),-2.8%
25,Cc1onc(-c2c(Cl)cccc2Cl)c1C(=O)NC(C)C,-7.09%

row,Structure (SMILES),% Inhibition @ 10 uM
1,CCc1ccc(CNCc2c(C(=O)O)c(C)n(Cc3cccc(Cl)c3)c2C)cc1,-0.23%
2,CCc1c(C)nc2nncn2c1NCc1ccc(F)cc1,-0.808%
3,Cc1ccc(C)c(Cn2c(C(=O)O)c(CNCC(C)c3ccccc3)c3ccccc32)c1 (stereo not shown),-3.21%
4,COc1ccc(C(=O)NC2(C(F)(F)F)NC(=O)N(Cc3ccco3)C2=O)cc1OC (stereo not shown),-3.33%
5,c1ccc(CN2CCC(NC3CCC(c4ccccc4)CC3)CC2)cc1 (stereo not shown),-5.44%
6,CCOC(=O)c1cn2nc(-c3ccc(OC)c(OC)c3)cc2nc1C,3.62%
7,CCOC(=O)N1CCC(NC(c2ccccc2)c2ccc(Cl)cc2)CC1 (stereo not shown),-3.6%
8,O=c1oc2cc(O)ccc2cc1-c1csc(-c2ccc(Br)cc2)n1,4.81%
9,O=C(CCCC(=O)c1ccccc1)NC(c1ccccc1)c1ccccc1,-1.46%
10,COc1ccc(-c2cc(OC(=O)/C=C/c3ccccc3)c3c(C)oc(C)c3c(=O)c2)cc1,0.778%
11,COc1ccc2[nH]c(SCc3cnc(C)nc3N)nc2c1,-1.72%
12,COc1ccc(NCN2C(=O)C3CCC(C)CC3C2=O)cc1 (stereo not shown),-11.7%
13,COc1ccc(-c2nc3ccccc3n2C(=O)c2ccccc2C(=O)O)cc1OC,-3.64%
14,COc1ccc(C(=O)C2=C(O)C(=O)N(CCc3ccccc3)C2c2cccc(F)c2)cc1 (stereo not shown),9.19%
15,O=c1ccc(-c2ccccc2)nn1Cc1cc(=O)n2ccccc2n1,-2.71%
16,C=CCn1c(N)cc(=O)nc1SCC(=O)Nc1ccc(Cl)cn1,-4.68%
17,Oc1c(/C=N/CCN2CCOCC2)c(C(F)(F)F)nn1-c1nc2ccccc2s1,-2.26%
18,C=CCSc1nc2sc3c(c2c(=O)n1-c1ccccc1)CCN(C)C3,1.4%
19,CCCN(CCC)S(=O)(=O)c1ccc(C(=O)NCCOc2ccccc2Cl)cc1,4.42%
20,CC(C)c1ccc(NC(=O)CN(C)S(=O)(=O)c2cc(Cl)ccc2Cl)cc1,5.66%
21,COc1ccc(CN2CCN(C)CC2)cc1OC,1.28%
22,Cc1ccc(CCNC(=O)Cn2cc3c(n2)CCCC3)cc1,0.137%
23,COc1ccc(NC(=O)CN(c2ccc(C)c(Cl)c2)S(C)(=O)=O)c(OC)c1,0.189%
24,COc1ccc(/C=C/C(=O)NCc2ccc(Cl)cc2Cl)cc1,3.44%
25,O=C(O)c1nn(-c2ccccc2)nc1-c1nn(-c2ccccc2)nc1C(=O)O,7.56%

row,Structure (SMILES),% Inhibition @ 10 uM
1,O=C(CSc1ncnc2sc(-c3ccccc3)cc12)NCCc1ccccc1,1.84%
2,c1ccc(CC2CCN(Cc3ccncc3)CC2)cc1,0.472%
3,CC1=C(c2ccc(C(C)C)cc2)S(=O)(=O)N=C1Nc1cccnc1,0.413%
4,CCc1ccc2nc(NC3=NCN(C4CCCCC4)CN3)nc(C)c2c1,2.1%
5,CCOc1ccccc1N(CC(=O)NC(C)(C)C)S(=O)(=O)c1ccc(Cl)cc1,-8.2%
6,CCOC(=O)c1cnc2c(C)cccc2c1O,-12.1%
7,O=C1NC(=O)C(=Cc2coc3ccccc3c2=O)C(=O)N1,-9.6%
8,CCCCC/N=C/C1=C(O)CC(c2ccccc2)CC1=O (stereo not shown),-0.142%
9,C=CCCCC(=O)Nc1cc(OC)nc(OC)n1,-2.02%
10,Nc1nc2nc(-c3ccc(OCc4ccccc4)cc3)cc(C(F)(F)F)n2n1,-1.69%
11,Cc1ccc(CN(C)CCc2ccccc2)o1,0.0792%
12,CC(C)(C)NC(=O)Cn1c(=O)n(CC(=O)NC(C)(C)C)c2ccccc21,0.13%
13,CCCCc1ccc(-c2nc(-c3ccc(Br)cc3)no2)cc1,-4.31%
14,CS(=O)(=O)c1nc(-c2ccc(F)cc2)cc(C(F)(F)F)n1,3.34%
15,Cc1cc(C(F)(F)F)nc2sc(C(=O)Nc3ccc(F)cc3)c(N)c12,-1.02%
16,O=C1CC(c2ccc(Cl)c(Cl)c2)C2=C(CC(c3ccccc3Cl)CC2=O)N1 (stereo not shown),4.78%
17,COc1cccc(CSc2nc3cccnc3[nH]2)c1,2.72%
18,CSc1nc(-c2ccccc2)nc(NC(C)=O)c1C(C)=O,3.62% and -2.29%
19,CCC[C@@H](NC(=O)C(CC(C)C)c1cccc(-c2ccc(N3CCNCC3)cc2)c1)C(=O)c1nnc(-c2ccc(OC)cc2)o1 (stereo partly shown),-1.41%
20,C=CCNC(=O)C(=O)NCc1ccccn1,-2.18%
21,Cc1c(Cc2ccccc2)sc(NC(=O)c2ccccc2)c1C(N)=O,3.84%
22,CCOc1ccc(N(CC(=O)N2CCCCC2)S(=O)(=O)c2ccc(C)cc2)cc1,-0.496%
23,CC1(C)Cc2c(sc3ncn4nc(-c5ccccc5)nc4c23)C(C)(C)N1,-2.26%
24,Cc1ccc(CCNS(=O)(=O)c2ccc(-n3cccn3)cc2)cc1,-4.27%
25,CS(=O)(=O)N(CC(=O)N1CCCCC1)c1ccccc1F,-1.59%

row,Structure (SMILES),% Inhibition @ 10 uM
1,O=C(NCc1nc2ccccc2n1CCCCOc1ccccc1)c1ccccc1,-1.15%
2,COc1ccc(Br)cc1C1C(C#N)=C(N)Oc2cc(C)oc(=O)c21 (stereo not shown),0.317%
3,O=C(Cn1cc(C(=O)c2ccccc2)c2ccccc21)NCC1CCCO1 (stereo not shown),-3.64%
4,COc1cc(C2NC(=O)NC(C)=C2C(=O)OCCOc2ccccc2)ccc1O (stereo not shown),-4.77%
5,CCN1CCN(Cc2ccco2)CC1,-4.35%
6,CCC(C)N(CCNC(=O)Cn1ncc2c3ccccc3nc-2c1O)Cc1ccco1 (stereo not shown),1.43%
7,Cc1ccc(Sc2cc(C(=O)NCCN(C)C)c3ccccc3n2)cc1,-0.406%
8,CCOc1ccc(-c2ncnn2-c2cccc(C(F)(F)F)c2)cc1,-0.0953%
9,O=C(CCCCn1c(=O)[nH]c2ccsc2c1=O)NCCC1=CCCCC1,-0.972%
10,CC(C)COc1ccc2c(c1)c1c3c([n+](C)ccn32)CCC1,0.565%
11,CCC(C)NC(=O)C1CCN(c2nnc(C)c3c(C)n(-c4ccccc4)nc23)CC1 (stereo not shown),-0.486%
12,O=c1c(Cl)c(N2CCOCC2)cnn1-c1nc2ccccc2o1,-1.07%
13,N#CCNC(=O)[C@H](CC1CCCCC1)NC(=O)c1ccco1,-1.83%
14,COc1ccccc1S(=O)Cc1ccc(C(=O)NCc2ccccc2Cl)o1 (stereo not shown),0.458%
15,O=C(NC1CCCCCC1)c1nsc2ccccc12,-7.02%
16,O=C(CN1CCN(Cc2ccccc2)C1=O)NCCc1ccccc1,-0.704%
17,CC(Cc1ccccc1F)N1CCN(c2ccccc2)CC1 (stereo not shown),-3.42%
18,O=C(NCC1CCCC1c1ccccc1)C1c2ccccc2C(=O)N2CCc3ccccc3C12 (stereo not shown),5.12%
19,CCOC(=O)C1=C(C)N=c2s/c(=C/c3ccc(OC)cc3)c(=O)n2C1c1ccccc1F (stereo not shown),5.94%
20,Cc1c(Cl)cccc1NC(=O)c1cccc(Br)c1,-3.65%
21,CN1CCN(Cc2c(NC(=O)c3ccccc3F)sc3c2CCC3)CC1,-4.72%
22,Nc1ccccc1C(=O)Nc1ccc(F)cc1,-4.63%
23,Cn1c(=O)c2c(nc(Sc3ncccn3)n2Cc2ccccc2Cl)n(C)c1=O,-2.71%
24,c1ccc2c(CCNC3CCCCCC3)c[nH]c2c1,1.57%
25,COc1cccc(CN2CCc3ccccc3C2)c1,4.81%
